Measurements reported in PubChem BioAssay AID360 (National Center for Advancing Translational Sciences (NCATS), 2006).
Screen size: about 48,000 compounds; about 550 (1.1%) were called active. About 4% were inconclusive and are not listed. Cut-off read from the data, not from the text of the source: active = potency below about 15 µM; inconclusive = mostly about 16 µM to 33 µM; inactive = weaker than that. The list shows a part of the results.

Biological target: Lysosomal acid glucosylceramidase (Homo sapiens) (UniProt P04062)
Test: Glucocerebrosidase;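 note: the screen sought inhibitors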
Conditions: purified enzyme, resorufin glucoside fluorescence (screen aimed at inhibitors), 20 min
Procedure, shortened: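 Compounds titrated against 0.2 nM normal enzyme, 30 uM resorufin beta-D-glucopyranoside substrate, citrate/phosphate buffer with taurocholate and tween-20, pH 5.9. Reaction ran 20 min at room temperature; fluorescence (Ex 548/Em 600) gave AC50.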
Potency is the fitted concentration of half-maximal effect.

Chain of UniProt P04062 (P04062 whole entry, looked up): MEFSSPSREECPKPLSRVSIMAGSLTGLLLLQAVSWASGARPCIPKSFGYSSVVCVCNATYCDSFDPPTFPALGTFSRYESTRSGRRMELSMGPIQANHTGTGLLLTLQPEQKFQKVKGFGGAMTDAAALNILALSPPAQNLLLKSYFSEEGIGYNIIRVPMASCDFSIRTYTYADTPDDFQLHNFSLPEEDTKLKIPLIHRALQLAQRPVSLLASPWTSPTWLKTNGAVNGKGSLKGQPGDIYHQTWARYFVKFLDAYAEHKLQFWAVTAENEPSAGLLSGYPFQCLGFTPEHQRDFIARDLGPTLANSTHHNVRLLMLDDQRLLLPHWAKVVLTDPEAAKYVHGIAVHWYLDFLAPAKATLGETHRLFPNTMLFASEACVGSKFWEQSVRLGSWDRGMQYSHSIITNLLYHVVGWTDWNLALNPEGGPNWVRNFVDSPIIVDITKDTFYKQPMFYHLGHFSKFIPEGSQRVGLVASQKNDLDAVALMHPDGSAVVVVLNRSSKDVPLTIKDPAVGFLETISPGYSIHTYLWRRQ

Potency, inactive:
CCOc1ccc2nc(NC(=O)C3CCCN(S(=O)(=O)c4cccs4)C3)sc2c1 (stereo not given) > 76.9 µM
c1coc(CN(Cc2cccs2)Cc2nnnn2C2CCCCC2)c1 > 76.9 µM
Cc1cc(C)c2[nH]c(=O)c(CN(Cc3ccc4c(c3)OCO4)Cc3nnnn3C3CCCC3)cc2c1 > 76.9 µM
COc1cc(Cl)c(S(=O)(=O)N2CCOCC2)cc1Cl > 76.9 µM
Cc1cc(C)c(-c2cc(C(=O)Nc3c(C)n(C)n(-c4ccccc4)c3=O)[nH]n2)c(O)c1 > 76.9 µM
Cc1cc(C)cc(-n2nnnc2SCC(=O)Nc2cccc(NC(=O)c3ccco3)c2)c1 > 76.9 µM
O=C(CSc1nc2[nH]ncc2c(=O)n1-c1ccccc1)N1CCCc2ccccc21 > 76.9 µM
NC(=O)c1ccc(-c2ccc(Br)cc2)o1 > 76.9 µM
CCOC(=O)CSCc1c(C#N)c2ccccc2n1C > 76.9 µM
O=C(c1ccncc1)c1ccc(N2CCN(C3CC(=O)N(Cc4ccccc4)C3=O)CC2)cc1 (stereo not given) > 76.9 µM
COC(=O)CC1NCCNC1=O (stereo not given) > 76.9 µM
CCS(=O)(=O)N1CCC(C(=O)NCCCOC)CC1 > 76.9 µM
O=C(CSc1nnnn1-c1ccccc1)NC(=O)Nc1ccc2c(c1)OCCO2 > 76.9 µM
C/C=C(\C)CN1CCc2cc(OC)c(OC)cc2C1 > 76.9 µM
COc1ccc(C(O)c2coc3ccc(O)c(CN(C)C)c23)cc1 (stereo not given) > 76.9 µM
COc1ccc(N2CCN(C(c3ccccc3)c3nnnn3Cc3ccc(F)cc3)CC2)cc1 (stereo not given) > 76.9 µM
CCN(CC)S(=O)(=O)c1ccc(NC(=O)CN(c2cccc(F)c2)S(C)(=O)=O)cc1 > 76.9 µM
CCC(c1nc2ccccc2c(=O)n1-c1cccnc1)N1C(=O)c2ccccc2C1=O (stereo not given) > 76.9 µM
CCn1c(C)nc2cc(C(=O)n3cc(C(=O)c4cc(F)ccc4O)cn3)ccc21 > 76.9 µM
CCCN1CC=C2C(C#N)=C(N)C(C#N)(C#N)C(c3cccc(OC)c3OC)C2C1 (stereo not given)
Cc1cc(C)nc(N2CCCC(C(=O)Nc3ccc4c(c3)OCCO4)C2)n1 (stereo not given) > 76.9 µM
COc1ccc(NC(=O)c2cccnc2N2CCCCC2)cc1 > 76.9 µM
CCc1nc(C)cn1S(=O)(=O)c1cc(OC)c(C)cc1C > 76.9 µM
CCn1c(SCC(=O)OC(C)C)nnc1-c1cccc(Cl)c1 > 76.9 µM
CCCCOC(=O)C1=C(C)NC2=C(C(=O)CCC2)C1c1cc(OC)ccc1OC (stereo not given) > 76.9 µM
COC(=O)C1CCN(C(=O)Cc2ccc(OC)c(OC)c2)CC1 > 76.9 µM
COc1cccc(/C=C/c2ccncc2)c1OC > 76.9 µM
O=C(O)C1CCCN1c1ncccn1 (stereo not given) > 76.9 µM
C=CCn1c(SCC(=O)NC(=O)NCC(C)C)nnc1C1CCCCC1 > 76.9 µM
COc1cccc(C2CC(c3c(F)cccc3Cl)n3nc(N)nc3N2)c1 (stereo not given) > 76.9 µM
O=C(CNS(=O)(=O)c1ccc(F)cc1)N1CCN(c2ccc(F)cc2)CC1 > 76.9 µM
Cc1cc(C)n(-c2cccc(Cl)c2)c(=O)c1C#N > 76.9 µM
CC(C)Cn1c(N)c(C(=O)NCC2CCCO2)c2nc3ccccc3nc21 (stereo not given) > 76.9 µM
O=C1C2CCC(C(O)C2)N1Cc1ccccc1 (stereo not given) > 76.9 µM
O=c1cc(-c2ccccc2)nc2nc(CCc3ccccc3)[nH]n12 > 76.9 µM
CCc1nnc(NC(=O)CSc2nnc(-c3ccccc3OC)n2-c2ccccc2)s1 > 76.9 µM
COc1cccc(NC(=O)CN(C)S(=O)(=O)c2ccc(C)cc2)c1 > 76.9 µM
Cn1c(CN2CCC(C(N)=O)CC2)c(C#N)c2ccccc21 > 76.9 µM
COc1ccc2[nH]cc(C(=O)CN3CCN(C(=O)c4ccco4)CC3)c2c1 > 76.9 µM
COC(=O)C1CCN(C(=O)CN2C(=O)NC(CCc3ccccc3)C2=O)CC1 (stereo not given) > 76.9 µM
COc1ccccc1N1CCN(S(=O)(=O)c2ccccc2F)CC1 > 76.9 µM
O=C(Nc1ccccc1OC(F)F)c1ccc(Br)o1 > 76.9 µM
COc1ccc2nc(NC(=O)C3CCCN(S(=O)(=O)c4cccs4)C3)sc2c1 (stereo not given) > 76.9 µM
CC(C)(C)n1ncc2c(=O)n(CC(=O)OCc3ccccc3)cnc21 > 76.9 µM
CCOC(=O)C1CCN(C(=O)C2CCN(S(=O)(=O)CC)CC2)CC1 > 76.9 µM
COc1cccc(CN(Cc2cccnc2)S(=O)(=O)c2ccc(-n3cnnn3)c(C)c2)c1OC > 76.9 µM
Nc1nc(-c2ccco2)nc(N2CCCCC2)n1 > 76.9 µM
CCOC(=O)N1CCN(C(=O)CSc2nnc(Cc3cccn3C)n2CCc2ccccc2)CC1 > 76.9 µM
CCOC(=O)N1CCN(C(=O)C(NC(=O)C2CCC(C)CC2)C(C)C)CC1 (stereo not given) > 76.9 µM
Cn1c(=O)c2c(nc(Br)n2CCSc2nnnn2-c2ccccc2)n(C)c1=O > 76.9 µM
CCn1nc(C)c(NC(=O)CCCSc2nc(-c3ccco3)cc(C(F)(F)F)n2)c1C > 76.9 µM
CC(C)OCC(O)CN (stereo not given) > 76.9 µM
O=C1CC(SCc2nc3ccccc3[nH]2)C(=O)N1c1ccc(F)cc1 (stereo not given) > 76.9 µM
CC(C)(C)n1nnnc1C(c1cc2cc3c(cc2[nH]c1=O)OCO3)N1CCN(c2ccccc2)CC1 (stereo not given) > 76.9 µM
Cn1c(=O)c2c(nc(N3CCCCC3)n2CCNC2=NCCC2)n(C)c1=O > 76.9 µM
Cc1cc(C)cc(OCc2nnc(SCC(=O)Nc3ccccc3)o2)c1 > 76.9 µM
COC(=O)C1=C(N)Oc2cc(C)[nH]c(=O)c2C1c1cc(OC)c(OC)c(OC)c1 (stereo not given) > 76.9 µM
COc1ccccc1NS(=O)(=O)c1ccccc1C#N > 76.9 µM
CCOc1ccc2ccccc2c1/C=N/n1cncn1 > 76.9 µM
Cc1cc(C(=O)N2CCN(c3ccccc3)CC2)no1 > 76.9 µM
NC(=O)c1ccccc1N=Cc1ccccn1 > 76.9 µM
CN(CC(=O)NC(=O)NCc1ccco1)Cc1nc2ccccc2c(=O)[nH]1 > 76.9 µM
CCCCOc1ccc(Cl)cc1CSc1nnc(C)n1N > 76.9 µM
CCCCn1c2c(c(=O)n(C)c1=O)C(c1ccc(OC)cc1)N1CCCCCC1=N2 (stereo not given) > 76.9 µM
COc1ccc(-c2csc(NC(C)=O)n2)cc1OC > 76.9 µM
COC(=O)c1cc(=O)nc2sccn12 > 76.9 µM
CC[C@H](C)[C@H](NS(=O)(=O)c1ccc(C)cc1)C(=O)N1CCC(C(=O)N[C@@H](C)C(=O)O)CC1 > 76.9 µM
Cn1c(CCCOc2ccc(Cl)cc2Cl)nnc1SCC(=O)Nc1nccs1 > 76.9 µM
Cc1ccc(O)c(NC(=O)c2ccco2)c1 > 76.9 µM
CCOc1ccc2cc(C#N)c(SCC(=O)N3CCC(C)CC3)nc2c1 > 76.9 µM
COc1ccc(CCNC2CCN(C)CC2)cc1OC > 76.9 µM
O=c1c2[nH]c3ccccc3c2ncn1CCN1CCOCC1 > 76.9 µM
Cc1cc2cc(OCC(=O)O)ccc2n1C > 76.9 µM
CC(=O)NC1CC2CCCC(C1)N2S(=O)(=O)c1ccccc1 (stereo not given) > 76.9 µM
CN1CCN(C(=O)CN(c2cccc(Cl)c2)S(=O)(=O)c2ccccc2)CC1 > 76.9 µM
COC(=O)CSc1nc(N2CCOCC2)c2c(c1C#N)CC(C)(C)N(C)C2 > 76.9 µM
CCOC(=O)c1c(C)c(C(=O)NCCOC)c(C)n1CC
O=C(Cn1c(CN2CCCCC2)nc2ccccc2c1=O)NCc1ccco1 > 76.9 µM
COc1ccc(OC)c(C2C(C(C)=O)=C(O)C(=O)N2Cc2cccnc2)c1 (stereo not given) > 76.9 µM
Cc1cc(OC(=O)c2ccc(S(=O)(=O)N(C)C)cc2)cc(=O)o1 > 76.9 µM
CCCCn1c(SCC(=O)c2ccc(OC)cc2OC)nc2cc(S(N)(=O)=O)ccc21 > 76.9 µM
Cc1cc(C)nc(-n2nc(C)c(C3(O)C(=O)Nc4ccccc43)c2N)n1 (stereo not given) > 76.9 µM
CC(=O)c1cccc(NC(=O)C2CCCN(S(=O)(=O)c3ccc(F)cc3)C2)c1 (stereo not given) > 76.9 µM
Cc1ccc(-c2nn3c(=O)c(C)nnc3s2)cc1 > 76.9 µM
CCCCCCS(=O)[C@H]1CS(=O)(=O)C[C@@H]1S(=O)CCCCCC (stereo not given in full) > 76.9 µM
CCCCOCCCNC1=NCCCCC1 > 76.9 µM
CCOc1ccc2[nH]c(=O)c(CN(CCO)C(=O)c3ccc(Br)cc3)cc2c1 > 76.9 µM
COc1cc(CN2CCN(c3cccc(Cl)c3)CC2)cc(OC)c1OC > 76.9 µM
COCCn1cc(C(=O)c2ccccc2OCC(=O)Nc2cc(C)on2)cc(C#N)c1=O > 76.9 µM

Potency, active:
O=C(CCCCCNc1nc(=S)[nH]c2ccccc12)N1CCN(c2ccccn2)CC1 5.73 µM
